# In all, about 320,000 compounds went through this assay and about 7,600 (2.4%) were called active. The inconclusive results got no clear call from the source; some entries with a clear call stand among them for comparison. The call rests on the fitted dose curve; in most records, active means well fitted activation curve with a large enough effect; inconclusive means small, poorly fitted or top-dose-only effect; inactive means no such curve, though single readings can be large or run the other way. Potencies of inconclusive entries are left out as doubtful fits.
# Assay: qHTS Assay for NPC1 Promoter Activators; further: nearly all actives have a fitted effect of over 60% in size;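 on activation: reporter is driven by a mutant NPC1 promoter; % of control where 0% means no effect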
# Details: Huh7 NPC1 promoter luciferase reporter, 24 h; series mostly up to 9.22 µM; activation: at the top concentration
# Summary of the method: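 Stable NPC1-promoter luciferase Huh7 line; cpd (DMSO) 24 h, 37 °C, 5% CO2; Amplite luciferase reagent 10 min RT; luminescence readout. qHTS format.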
# Potency means the concentration at half of the fitted maximal effect; tags describe the fitted curve by direction and shape.
SMILES,Potency,activation
CCN(CC)S(=O)(=O)c1cc(C(=O)OCC(=O)Nc2ccc(-c3nc4ccc(C)cc4s3)cc2)ccc1F,active: 0.398 µM,–
O=C(Nc1sc2c(c1C(=O)O)CCC2)c1cccc(Cl)c1,"inconclusive [activator, single point]",–
O=C(NC(=S)Nc1ccccc1O)c1ccccc1Cl,"inconclusive [activator, partial curve]",–
COc1ccccc1N1CCN(C(=O)CSc2nc3ccccc3c(=O)n2CC2CCCO2)CC1 (stereo unspecified),–,inactive: 0.769%
Cc1onc(-c2ccccc2)c1C(=O)c1c[nH]c(C(=O)NCc2ccncc2)c1,–,inactive: -1.87%
O=C(CCl)Nc1ccccc1C(=O)Nc1ccc2c(c1)OCO2,active: 0.708 µM,–
CCN(CC)CCn1c2c(c(SCC(=O)Nc3cc(OC)cc(OC)c3)nc1=O)CCC2,–,inactive: 4.22%
CC(C)C(=O)OCC(=O)NCc1ccccc1Cl,"inconclusive [activator, single point]",–
Cc1ccc(-c2nc(N/N=C/c3cccc([N+](=O)[O-])c3)c3ccccc3n2)cc1,"inconclusive [activator, partial curve]",–
Cc1csc(NC(=O)c2cnc3ccccc3n2)n1,"inconclusive [activator, single point]",–
Nc1nn2c(-c3ccccc3)cc(=O)[nH]c2c1N=Nc1ccc(O)cc1,–,inactive: -1.59%
COc1cc(OC)cc(-c2cc3nc(C)c(CCC(=O)O)c(C)n3n2)c1,–,inactive: -15.3%
COc1cccc(NC(=O)C2CCN(C(=O)[C@@H]3Cc4ccccc4CN3)CC2)c1,–,inactive: -12.5%
O=c1c2c(nc3n1CCCCC3)sc1c(O)cccc12,"inconclusive [activator, single point]",–
CC(C)c1ccc(N2C=Nc3ccc(C(C)C)cc3C2)cc1,–,inactive: 6.43%
CC12COC3(C(=O)Nc4ccc5ccccc5c4)CC1CCC32C (stereo unspecified),"inconclusive [activator, single point]",–
NS(=O)(=O)c1ccc(CCNC(=O)c2cc(-c3ccco3)nc3ccccc23)cc1,–,inactive: -2.46%
CC(=O)Nc1ccc(SCC(=O)c2cc(C)n(-c3ccccc3)c2C)cc1,"inconclusive [activator, partial curve]",–
Cn1c2ccccc2c(=O)c2cc(C#CC3(O)CCCCC3)ccc21,"inconclusive [activator, full curve, poor fit]",–
S=C(Nc1ccc(-c2nc3ccccc3[nH]2)cc1)Nc1cccnc1,"inconclusive [activator, full curve]",–
COc1ccccc1C(=O)COC(=O)c1cc(=O)[nH]c2ccccc12,–,inactive: -1.65%
COC(=O)N/N=C/c1cn(CCCOc2ccccc2)c2ccccc12,"inconclusive [activator, partial curve]",–
Cc1cc(OCc2cc(C(=O)N(C)C3CCOCC3)no2)cc(C)c1Cl,active: 3.55 µM,–
O=C(COc1ccc(Br)cc1)NCC1COc2ccccc2O1 (stereo unspecified),–,inactive: -4.11%
COc1cc(S(=O)(=O)N2CCOCC2)ccc1F,–,inactive: 2.06%
COc1ccc(C(=O)O)cc1S(=O)(=O)Nc1ccc(C)cc1,–,inactive: -28.3%

SMILES,Potency,activation
CN(C)c1ccc(N=c2sc3ccccc3n2C)cc1,"inconclusive [activator, partial curve]",–
CC(C)Cc1cc(C(=O)Nc2cccc(O)c2)no1,"inconclusive [activator, single point]",–
COc1cccc(OC)c1C(=O)Nc1ccnn1C,–,inactive: 2.13%
COc1c(C)cccc1C(=O)Nc1ccc(N2CCN(S(C)(=O)=O)CC2)cc1,active: 3.98 µM,–
CNc1nnc(-c2cc3cc(Cl)ccc3oc2=O)s1,"inconclusive [activator, partial curve]",–
COC(=O)c1ccc(-c2ccc(C(c3c(C)[nH][nH]c3=O)c3c(C)[nH][nH]c3=O)o2)cc1,"inconclusive [activator, single point]",–
CCN(CC)C(=O)CCCSc1nnc(Nc2ccccc2F)s1,"inconclusive [activator, partial curve]",–
O=C(NC1CC1)c1sc2cc(Cl)ccc2c1Cl,"inconclusive [activator, single point]",–
Cc1ccc(NC(=O)CC(=O)c2ccccc2)cc1C,"inconclusive [activator, partial curve]",–
O=C(Nc1cccc2ccccc12)N1N=CCC1c1ccccc1 (stereo unspecified),"inconclusive [activator, single point]",–
Cc1ccc(Sc2cc(C)nc(-c3ccccn3)n2)cc1,–,inactive: 20.5%
NC(=O)COc1ccc(NC(=O)CC23CC4CC(CC(C4)C2)C3)cc1,–,inactive: -3.97%
O=C(Nc1ccc(F)cc1F)c1ccc2ncsc2c1,active: 2.51 µM,–
O=C(Nc1ccc(Cl)cc1)C1=Cc2cc(Cl)ccc2OC1,–,inactive: 1.73%
CCCCc1ccc(NC(=O)C2CCCO2)cc1 (stereo unspecified),active: 1.58 µM,–
Cc1ccc2nc(SCC(=O)c3ccc4c(c3)OCO4)[nH]c2c1,–,inactive: 9.4%
C/C(=N\NC(=O)c1csc(C)c1C)c1ccc(C)s1,"inconclusive [activator, single point]",–
Nc1nc(CSc2ncccn2)nc(Nc2ccccc2)n1,active: 4.47 µM,–
OCCC1CN(Cc2nc3ccccc3s2)CCN1C1CCCC1 (stereo unspecified),"inconclusive [activator, single point]",–
CC1CN(C(=O)COC(=O)c2ccccc2O)CC(C)O1 (stereo unspecified),–,inactive: -4.47%
Cc1ccc(NC(=O)c2ccc([N+](=O)[O-])cc2)cc1S(=O)(=O)N(C)C,"inconclusive [activator, single point]",–
O=C(NCc1ccccc1)c1cc2ccc(O)cc2oc1=O,"inconclusive [activator, single point]",–
CCN1CCN(c2ccc(NC(=O)c3ccccc3F)cc2Cl)CC1,"inconclusive [activator, partial curve]",–
c1ccc(OCc2cc(-c3ccccc3)no2)cc1,"inconclusive [activator, partial curve]",–
COc1ccccc1CC1CC(=O)N(c2cccc(Cl)c2C)C1=O (stereo unspecified),–,inactive: -6.08%
